# Scores whose standard error is large were omitted. The source holds two more conditions with little spread; they are left out. Names with del lack the residues named; names with ins carry added residues between the positions named. For part of these data: The concentration of ogerin is not given here.
# B1: GPR68, Q15743 (parent)
# chain: MGNITADNSSMSCTIDHTIHQTLAPVVYVTVLVVGFPANCLSLYFGYLQIKARNELGVYLCNLTVADLFYICSLPFWLQYVLQHDNWSHGDLSCQVCGILLYENIYISVGFLCCISVDRYLAVAHPFRFHQFRTLKAAVGVSVVIWAKELLTSIYFLMHEEVIEDENQHRVCFEHYPIQAWQRAINYYRFLVGFLFPICLLLASYQGILRAVRRSHGTQKSRKDQIQRLVLSTVVIFLACFLPYHVLLLVRSVWEASCDFAKGVFNAYHFSLLLTSFNCVADPVLYCFVSETTHRDLARLRGACLAFLTCSRTGRAREAYPLGAPEASGKSGAQGEEPELLTKLHPAFQTPNSPGSGGFPTGRLA
# Assays:
# [1] = variants of: B1; assay: cAMP reporter score (Enrich2 score, wild type = 0); higher = more signal; HEK293T, FACS bins
# [2] = variants of: B1; assay: surface expression score (Enrich2 score, wild type = 0); higher = more signal; HEK293T, FACS bins
Variant,cAMP reporter score ([1]; pH 5.5),cAMP reporter score ([1]; pH 6),"cAMP reporter score ([1]; pH 6, modulator: ogerin)","cAMP reporter score ([1]; pH 6.5, modulator: ogerin)",surface expression score [2]
T292_T293insGSG,-1.73,-1.32,-1.53,-1.21,-0.147
C304G,-0.22,-0.684,0.648,–,0.222
C304E,0.179,-0.858,-0.498,-0.343,1.07
C304A,0.793,-0.926,0.954,0.225,1.01
C304F,0.058,0.232,0.298,0.254,0.504
C304H,0.071,-1.09,0.121,-0.913,-0.383
C304D,-0.322,0.413,-0.612,–,0.602
A298del,-0.652,–,-0.492,-0.481,-0.901
L300del,-0.324,-0.228,-0.462,-0.765,-0.041
L285del,-1.07,–,-0.849,–,–
V289_S290del,-1.7,-1.57,-2.09,-1.81,-1.88
L300_G302del,-1.02,-1.24,-1.65,-1.16,0.261
L300_R301insG,-0.132,-0.95,-0.479,-0.792,-0.388
S290_E291insG,-0.6,-1.53,-1.53,-1.6,0.537
R295_D296del,-0.525,-0.916,-0.727,-0.729,-0.292
R301_G302insG,0.595,-0.802,0.534,-0.57,0.178
A303_C304del,1.23,0.083,0.965,-0.44,0.2
T293_H294insGS,-0.44,–,-1.14,0.227,-0.312
A303_L305del,0.569,0.584,0.069,0.37,0.115
V289_S290insGS,-1.31,-0.708,-1.69,-0.91,-0.082
L297_R299del,-0.504,0.026,-0.885,-0.668,0.458

Variant,cAMP reporter score ([1]; pH 5.5),cAMP reporter score ([1]; pH 6),"cAMP reporter score ([1]; pH 6, modulator: ogerin)","cAMP reporter score ([1]; pH 6.5, modulator: ogerin)",surface expression score [2]
Y286_C287insG,-0.646,-0.765,-1.27,-1.12,-1.8
L297del,-1.36,-0.694,-1.82,-1.2,-0.548
T292I,-0.454,-0.446,–,-1.48,-0.686
T292C,0.012,-0.381,-0.581,-0.349,-0.035
T292D,-0.706,-0.499,-1.32,-1.71,0.155
T292E,0.811,-0.017,0.346,-0.215,0.483
T292H,-0.907,-0.51,-0.367,-1.62,-0.049
T292L,0.566,-0.445,0.414,0.088,-0.985
T292R,0.239,-0.515,0.379,0.544,-0.512
T292W,0.865,–,0.304,0.603,0.568
T292F,0.141,1.48,0.289,-0.494,0.414
T292P,-1.28,-0.67,-2.14,-0.855,-0.491
T292K,-0.848,-0.677,-0.368,-1.06,-0.146
T292G,-0.256,-0.356,-0.209,-0.269,0.245
T292Y,-0.234,1.66,-0.107,-0.683,-0.345
T292A,0.592,-0.069,0.31,-0.055,0.003
T292N,0.413,-0.79,0.255,-0.306,1.26
T292S,-0.419,-0.454,-0.115,-0.371,0.499
T292V,0.469,0.006,0.281,0.614,-0.028
T292M,1.49,–,0.936,0.193,0.701
T292Q,0.127,–,1.26,–,0.282

Variant,cAMP reporter score ([1]; pH 5.5),cAMP reporter score ([1]; pH 6),"cAMP reporter score ([1]; pH 6, modulator: ogerin)","cAMP reporter score ([1]; pH 6.5, modulator: ogerin)",surface expression score [2]
L300_R301insGS,-0.968,-0.943,-1.06,-0.961,-0.806
R301_G302insGS,0.335,-0.163,0.732,-0.876,1.15
F288del,-1.71,-0.707,-1.15,-0.184,-3.08
G302N,-0.357,0.391,0.261,-0.229,0.309
G302K,0.513,1.52,0.743,0.697,1.13
G302T,0.807,0.632,1.18,0.854,1.31
G302E,0.661,-0.196,0.61,0.591,0.89
G302C,-0.046,-0.87,-0.204,-0.043,-0.456
G302M,0.71,0.782,1.45,1.23,0.563
G302F,-0.327,-1.33,-0.431,-0.084,-1.08
G302I,-0.216,-0.348,0.037,-0.426,-0.511
G302L,0.393,–,0.365,-0.653,-0.61
G302S,0.358,-0.257,0.418,0.656,-0.351
G302P,1.37,0.371,0.774,0.281,0.696
G302Y,0.027,0.042,0.274,-0.55,-0.82
G302Q,1.03,0.304,1.14,1.13,1.31
G302V,0.27,-1.13,0.407,-0.05,-1.09
G302W,0.054,-1.18,-0.68,-0.983,-1.18
G302D,1.16,2.35,1.98,2.19,2.2
G302H,0.173,-0.155,0.406,-0.041,0.633
